This passage reports z-score results from PubChem BioAssay AID488969 (Vanderbilt High Throughput Screening Facility, 2010).

Over roughly 110,000 compounds, “z-score” has its median near -0.1; the highest 2% begin near 2. The list shows a part of the results. Activity calls are given as the source filed them.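 Rule for the calls: active = z-score in the third read window above 3 or below -3; inactive = the rest.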

The assay addresses Metabotropic glutamate receptor 8 (Rattus norvegicus) (UniProt P70579). In words: rat mGluR8 modulators via GIRK flux, primary screen, cell-based, thallium flux, HTS (AID 488969). The conditions noted are these: HEK293 rat mGluR8, GIRK (G protein-gated inwardly rectifying potassium channel) thallium flux, FluoZin2; at 10 µM; stronger effect = higher value; submaximal glutamate (EC20) added with thallium.
Chain of UniProt P70579 (P70579 whole entry, looked up): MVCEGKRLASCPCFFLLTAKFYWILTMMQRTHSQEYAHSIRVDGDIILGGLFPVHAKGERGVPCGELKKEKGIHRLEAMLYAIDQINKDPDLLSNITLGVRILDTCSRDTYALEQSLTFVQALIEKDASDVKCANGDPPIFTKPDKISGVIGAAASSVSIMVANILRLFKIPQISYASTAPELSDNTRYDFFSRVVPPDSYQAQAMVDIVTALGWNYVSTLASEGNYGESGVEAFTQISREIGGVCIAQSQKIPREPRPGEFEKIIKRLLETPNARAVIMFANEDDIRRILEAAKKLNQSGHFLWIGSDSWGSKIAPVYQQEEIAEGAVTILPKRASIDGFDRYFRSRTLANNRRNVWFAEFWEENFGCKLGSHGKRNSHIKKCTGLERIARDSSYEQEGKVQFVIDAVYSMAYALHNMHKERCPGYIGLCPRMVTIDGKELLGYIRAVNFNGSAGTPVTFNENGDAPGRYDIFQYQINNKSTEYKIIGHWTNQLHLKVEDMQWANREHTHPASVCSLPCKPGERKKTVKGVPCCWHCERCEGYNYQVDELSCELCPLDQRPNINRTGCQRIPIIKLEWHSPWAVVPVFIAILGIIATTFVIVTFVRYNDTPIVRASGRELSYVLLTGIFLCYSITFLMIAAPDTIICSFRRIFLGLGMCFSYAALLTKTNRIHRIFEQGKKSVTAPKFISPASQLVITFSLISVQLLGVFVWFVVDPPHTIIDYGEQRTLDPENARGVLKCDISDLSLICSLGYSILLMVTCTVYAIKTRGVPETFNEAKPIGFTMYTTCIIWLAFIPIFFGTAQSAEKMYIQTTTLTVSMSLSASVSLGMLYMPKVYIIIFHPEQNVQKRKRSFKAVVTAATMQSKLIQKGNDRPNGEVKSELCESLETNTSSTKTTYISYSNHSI
`Cc1nn(Cc2ccccc2)c(C)c1C(=O)NCCN1C(=O)S/C(=C\c2ccc(F)cc2)C1=O` had a z-score of 0.0396. For `[O-][n+]1cccc2ncc3cscc3c21` the value was 0.0114. For `CCCC(=O)c1c[nH]c(C(=O)NCc2ccco2)c1` the value was 0.568; for `Cc1ccc(OC(=O)c2cccc(C(=O)Oc3ccc(C)cc3)n2)cc1`, 1.1; for `COc1ccc(-c2nnc(SCC(=O)NCCc3ccccc3)o2)cc1`, 0.026. For `CC(C)(C)n1ncc(Oc2ccccc2[N+](=O)[O-])c(Cl)c1=O` the value was -0.0954. `CCC(=O)c1c[nH]c(C(=O)NCc2ccco2)c1` came in with a z-score of 0.111. With `Cc1cc(C)c(NS(=O)(=O)c2ccc(NC(=O)/C=C/C(=O)O)cc2)c(C)c1` the figure was -0.0619. For `O=C(c1ccc(Cl)cc1)c1ccc(CN2C(=O)c3ccccc3C2=O)o1` the value was -0.216; for `CCOc1ccc(-n2c(=O)c3sccc3n(CC(=O)NCc3ccco3)c2=O)cc1`, -0.769; for `CCOC(=O)N1CCC2(CC1)C(C#N)=C(N)Oc1c2sc2nc(C)cc(C)c12`, -0.369.

Regarding `O=C(O)c1nc(N2CCCC2)ncc1Cl`, the z-score is -0.485. With `O=C(Nc1ccc2c(c1)OCCO2)c1cccc(S(=O)(=O)N2CCCCC2)c1` the figure was -0.2. With `COc1ccccc1C1(CC(=O)O)CCOC(C(C)C)C1` (stereo not given) the figure was 0.0693; with `CCCCNC(=O)OCCNC(=O)NC`, 0.433; with `CC1(C)CC(=O)c2c(noc2-c2ccccc2)C1`, active: 3.63. With `COc1ccc(N(CC(=O)NC2CCCC2)S(=O)(=O)c2c(C)[nH]c(=O)[nH]c2=O)cc1` the figure was -0.0214; with `CCOc1cc(CNc2ccc3c(c2)OCCO3)cc(Br)c1OCC(N)=O`, -0.258. Compound `CC/C(=N\n1nnnc1Nc1ccccc1)c1ccccc1` showed a z-score of -0.359. For `Cc1cccc(-n2c(-c3csc4ccccc34)n[nH]c2=S)c1` the value was 2.62. With `CCCN(CCC)S(=O)(=O)c1ccc(NC(=O)COc2ccccc2)cc1` the figure was -1.33; with `O=S(=O)(CCc1nc2ccccc2o1)c1ccc2ccccc2c1`, 0.276. With `COc1ccc(/C=N/Nc2ccc(C(F)(F)F)cc2[N+](=O)[O-])cc1` the figure was 0.00171. As to `CN(CC(=O)NC1CCCCCC1)S(=O)(=O)c1ccc2c(c1)n(C)c(=O)c(=O)n2C`, the z-score worked out at 0.109. In turn, `COc1ccc(Cn2c(O)c(C=Nc3ccc(C)cc3)c3ccccc3c2=O)cc1` gave a z-score of 0.472. With `COC(=O)CCS(=O)(=O)c1ccc(Cl)c(Cl)c1` the figure was -0.294. For `CC(C)Sc1cc(N2CCCC2)nc(-c2ccc(F)cc2)n1` the value was -0.241.

For the compound `CC1CCCC(C)N1C(=O)Cc1ccccc1` (stereo not given), the z-score is 0.237.

Take `COCCCNC(=O)CCn1c(=O)c2ccccc2n(CC(=O)Nc2cc(Cl)ccc2C)c1=O`: the z-score was -0.0525. For `COC(=O)c1cccc(N(C(=O)c2cnccn2)C(C(=O)NC2CCCCC2)c2cn(C)nc2C)c1` (stereo not given) the value was -0.0869; for `C/C(=N\NC(=O)c1ccncc1)C12CC3CC(CC(C3)C1)C2`, -0.319. With `Cc1c(NC(=O)c2cc(-n3cnnc3)ccc2Cl)cccc1-c1nc2ccccc2o1`, the z-score is -0.115. With `Cc1occc1-c1nc(-c2ccncc2)no1` the figure was 0.281; with `COc1ccc(N(CC(=O)NN=C2CCCC2)S(=O)(=O)c2ccccc2)cc1`, -0.177. With `Cc1nc(Cl)c(C(=O)NCCC(C)C)c(C)c1[N+](=O)[O-]` the figure was -0.105. Consider `O=C(C1CCN(S(=O)(=O)c2cccnc2)CC1)N1CCCCC1`, for which the z-score worked out at 0.487. With `Cc1c(C(N)=O)sc2ncn(CC(=O)OC(C)C)c(=O)c12` the figure was 0.619; with `Cn1c(=O)c(-c2ccccc2)nc2ccccc21`, -0.27. With `COC(=O)CSc1nc(N)c(NC(=O)c2ccc(OC)c(OC)c2)c(=O)[nH]1` the figure was 0.0346; with `O=C(O)c1ccccc1NS(=O)(=O)c1ccccc1C(F)(F)F`, -2.23. `O=C(CSc1nnc(Cc2cccs2)n1Cc1ccco1)Nc1ccc(Br)cc1` registered a z-score of -0.431.

As for `COC(=O)c1ccccc1NC(=O)NCc1ccc2c(c1)OCO2`, the z-score was -0.588. With `O=C(Nc1ccc2c(c1)CCC2)c1cccc(F)c1` the figure was -0.533; with `O=C(NCC1CCCO1)c1onc(CSc2ccccc2)c1C(=O)O` (stereo not given), -0.2. For `COc1ccccc1CCNC(=O)/C(=C/c1cccnc1)NC(=O)c1ccccc1` the value was 0.407; for `C=CCn1c(=O)c2ccccc2n2c(SCC(=O)Nc3sc(C)c(CC)c3C(=O)OCC)nnc12`, -0.851. In turn, `CC1=NN(c2ccc(C)c(C)c2)C(=O)/C1=C/c1ccc2c(c1)n(C)c(=O)n2C` registered a z-score of 0.144. For `CCOC(=O)c1c(C)nn(Cc2ccccc2)c1N` the value was -0.611; for `COc1c(F)c(F)c(C(=O)Nc2cccc(Cl)c2N2CCOCC2)c(F)c1F`, 0.0118; for `CCc1nc(OCc2ccco2)c2sc3nc4c(cc3c2n1)COC(C)(C)C4`, -0.916. `Cc1ccc(NS(=O)(=O)c2ccc(NC(=O)[C@@H]3CCCC[C@@H]3C(=O)O)cc2)c(C)c1` showed a z-score of 0.0653. The compound `O=C(CSc1nc2c(cnn2-c2ccc(F)cc2)c(=O)[nH]1)N1CCCCCC1` gave a z-score of 0.587. For `Cc1ccc(S(=O)(=O)N(C)C)cc1NS(=O)(=O)c1ccc(Cl)s1` the value was -1.55; for `C=CCNC(=O)c1c(Cl)nc(C)c([N+](=O)[O-])c1C`, -0.112; for `C=CCOc1ccc(/C(O)=C2/C(=O)C(=O)N(CCN3CCOCC3)C2c2ccc(C)cc2)cc1` (stereo not given), -0.208.

As for `Cc1cccc(OCc2nnc(N)s2)c1C`, the z-score is -0.275. `Cc1ccc(C(=O)N/C(=C\c2cccnc2)c2nc3ccccc3[nH]2)cc1` returned a z-score of -0.117. `c1ccc(CNc2ncnc3c2cnn3-c2ccccc2)cc1` registered a z-score of -0.0703.

`COc1ccc(/C=N/Nc2nc(=O)[nH]nc2C)cc1[N+](=O)[O-]` returned a z-score of -0.356. Take `CCCCN(CC)C(=O)c1ccccc1Oc1ccccc1`: the z-score was -0.648. `Cc1cccc(NC(=O)C2CCN(S(=O)(=O)c3cccc4cccnc34)CC2)n1`: the z-score turned out to be 0.642. With `COc1ccccc1S(=O)(=O)Cc1ccc(C(=O)N2CCN(c3cccc(Cl)c3)CC2)o1` the figure was -0.158; with `Cc1ccc2c(c1)sc[n+]2Cc1ccccc1`, 0.0925. For `O=[N+]([O-])c1cc(C(F)(F)F)ccc1Sc1ccccn1` the value was -0.191.

In turn, `OC(CNC1CCCc2ccccc21)COc1c(Cl)cccc1Cl` (stereo not given) came in with a z-score of 1.97. Turning to `C=CCSc1nnc(NC(=O)CSc2ccccn2)s1`, the z-score was -0.421. With `Cc1ccc(S(=O)(=O)N2CCCCC2)cc1NC(=O)COC(=O)C1CC2C=CC1C2` (stereo not given) the figure was 2.38; with `O=S(=O)(NC1CC2CCC1C2)c1ccc(Br)s1` (stereo not given), 0.869; with `O=C(Oc1nsnc1N1CCOCC1)N1CCOCC1`, 0.156. Consider `O=C(CCC(=O)Nc1nnc(C2CCCCC2)s1)NCC1CCCO1` (stereo not given), for which the z-score turned out to be 0.0959.

The compound `CCOc1cc(CNc2ccccc2SC)ccc1O` gave a z-score of 0.763.

On to `N#CC1=C2Nc3ccccc3N2C(=O)NC1(c1ccccc1)C(F)(F)F` (stereo not given), for which the z-score amounted to 0.00994. With `CC(C)(C)C(=O)C(Oc1cccc2nonc12)n1cncn1` (stereo not given) the figure was -0.0119. In turn, `Cc1cc(NS(=O)(=O)c2ccc(Nc3nc(-c4sc(NC(=O)c5ccccc5)nc4C)cs3)cc2)no1` showed a z-score of -0.843. Take `CCCCNC(=O)COC(=O)c1ccc(NS(=O)(=O)c2ccc3c(c2)OCCO3)cc1`: the z-score is -0.0527. With `COc1ccccc1Oc1ccc2c(c1)C(=O)N(c1ccccc1)C2=O` the figure was 0.472; with `CC(=O)c1c(C)[nH]c(C(=O)CSc2nnc(CN3CCCCCC3=O)n2-c2ccccn2)c1C`, -0.0799. In turn, `Cc1nnc2n(-c3ccccc3)c(=O)c3c4c(sc3n12)CC(C)CC4` (stereo not given) registered a z-score of -1.3. The compound `O=C(NC12CC3CC(CC(C3)C1)C2)C1CC(=O)N(c2ccccc2)C1` (stereo not given) showed a z-score of -0.0926. With `O=C1C(Cc2ccccc2)S/C(=N/N=C/c2ccco2)N1c1ccccc1` (stereo not given) the figure was -0.0921; with `Brc1ccc(CN2CCN(c3ccccn3)CC2)s1`, -0.141. For `CC(C)[C@H](NS(=O)(=O)c1ccccc1)C(=O)OCC(=O)Nc1ccc2c(c1)OCO2` the value was -0.334. With `Cc1ccc(OCCCOc2cccc3cccnc23)cc1C` the figure was 0.00993; with `CCn1c(SCC(=O)Nc2sc3c(c2C#N)CCCC3)nnc1-c1ccncc1`, -0.633; with `O/N=C1/CCCCC1c1ccccn1` (stereo not given), 0.238. `CCNS(=O)(=O)c1ccc(S(=O)(=O)N(Cc2ccccn2)C2CCCCC2)cc1`: the z-score is -0.174. As for `CCn1ccc(C(=O)Oc2ccc(C(C)C)cc2)n1`, the z-score was determined as 0.321.

The compound `CCN(CC)CCNC(=O)c1c(C)oc2cc(Br)c(OC)cc12` returned a z-score of -0.44. With `CN(C)S(=O)(=O)c1ccc(-c2ccccc2)cc1` the figure was -1.4; with `CCOc1ccc(C(=O)CN2CCN(S(=O)(=O)c3ccc(OC)cc3)CC2)cc1`, -0.414.

Take `O=C(CCCN1C(=O)c2ccccc2C1=O)NCCN1C(=O)S/C(=C\c2cccs2)C1=O`: the z-score is 0.331.

With `CCCOc1cccc(C(=O)N(Cc2cccs2)C2CCS(=O)(=O)C2)c1` (stereo not given), the z-score was -0.815. With `CCOC(=O)c1ccc(N2C(=O)CC(N3CCC(C(N)=O)(N4CCCCC4)CC3)C2=O)cc1` (stereo not given) the figure was -0.0206; with `CS(=O)(=O)N(CC(=O)Nc1cccc(Cl)c1)c1ccccc1Cl`, -0.0609; with `Cc1cccc(N2CCN(C(=O)c3ccncc3)CC2)c1C`, -0.0566.

`O=C(CSc1nc2ccccc2o1)Nc1ccccc1`: the z-score is 0.0178. `C/C(=N\NC(=O)CSCc1ccc(Cl)cc1)c1ccc(NC(=O)c2ccccc2)cc1` had a z-score of -0.128.

In the case of `O=C(N/N=C/c1ccc(Cl)cc1Cl)c1n[nH]c2c1CCCC2`, the z-score is -0.138. With `O=C(N1CCOCC1)N1CCN(c2ccccc2)CC1` the figure was -0.483; with `Cc1ccc(-n2cc3ccc([N+](=O)[O-])cc3n2)cc1`, -0.0518.

For `c1ccc(CCc2nn3c(C4COc5ccccc5O4)nnc3s2)cc1` (stereo not given), the z-score is -0.73. Take `O=C1COc2ccc(NC(=O)N3CCN(c4ccc(F)cc4)CC3)cc2N1`: the z-score is -0.094. Turning to `O=C1C(c2ccc(F)cc2)N(Cc2ccc3c(c2)OCO3)C(=O)CN1C1CCCCCC1` (stereo not given), the z-score is -0.227. `COC(=O)CNc1ccc2c(c1)OCO2` registered a z-score of -0.231. For `Cc1cccc2c1[nH]c1nc(N/N=C\c3ccco3)nnc12` the value was -0.0756. With `O=C(O)c1cnc(-c2ccccc2)nc1Sc1ccc(Cl)cc1` the figure was -0.259. With `O=C(/C(=C/O)N=Nc1ccc(Cl)cc1)c1ccncc1` the figure was -0.168; with `COc1ccc(-c2n[nH]c(C)c2-c2cc(OC)ccc2O)cc1`, -0.00408; with `S=c1[nH]nc(-c2ccc3ccccc3n2)n1Cc1ccccc1`, 0.834. `Cc1c(Cl)cccc1NC(=S)NNc1ncc(C(F)(F)F)cc1Cl`: the z-score is 0.506.
